Assay results published in the supplement of paper PMC3724861.
The list shows a part of the results.

system: T1, Caupolican (Caup) homeodomain DNA-binding domain; assay: PBM E-score (8-mer, recovered from the published 9-mer minima) (E-score (dimensionless, -0.5 to 0.5)); Drosophila protein; higher = stronger relative binding preference, active = 0.31 or more
T1 sequence: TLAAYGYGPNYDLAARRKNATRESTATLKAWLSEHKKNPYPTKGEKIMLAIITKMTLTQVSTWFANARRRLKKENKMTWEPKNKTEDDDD
Procedure: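 Protein binding microarray (PBM): in vitro transcribed/translated Caupolican (Caup) homeodomain DNA-binding domain (residues 214-303) applied at 100 nM to a universal 8-mer PBM array (Agilent AMADID 015681). The 8-mer enrichment score (E-score, range -0.5 to 0.5) was computed, and each 9-mer score is the minimum E-score of its two constituent 8-mers. The E-score is the same for a 9-mer and its reverse complement; 0.31 is the stated binding threshold.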

PBM E-score, ≥ 0.0475:
AGAACTGA

PBM E-score, ≥ 0.084:
ACCGTAAA

PBM E-score, ≥ 0.00184:
ATGGAGCA

PBM E-score, active:
CCCTTGTA 0.337

PBM E-score, inactive:
AGACCACC -0.158
AGGCGGCC -0.228
AGGTCGAC 0.00284
GAGCGCGC -0.221
GGACCCCC -0.382
AGGGAGTA 0.0138
CACGTTGC 0.0387
AAGTTCAT 0.0213
ACTGGCAA -0.0302
GCGCAAAA -0.0416
AAATGTGG 0.127
AAACGTAT 0.0892
ATTTAGTA 0.151
GGATTAAA 0.0416
GCGGTTGA -0.00524
GGCCAGAC -0.0954
CCTTAGCA -0.156
GCGATACC -0.168
ATCGACGC 0.0422
TCTGGCCA -0.0807
ATGGGGCG -0.144
AATTCCAC 0.0287
AATGATAA 0.141
ACACTCCT 0.0379
GGCCAACC -0.179
TATACGAA 0.122
CATCGGTC -0.0743
CCAGCGCG -0.243
GCAAGAAC 0.00872
TCAATTGA -0.0145
GCGATCCC -0.142
GCGCCCGC -0.31
CTCTCGCA -0.108
CCCAAGAC -0.0814
AACTGAAA 0.069
GCCCATCA -0.1
AGACCTTC -0.138
CCTGACTC -0.114
CAGAGATG 0.129
CATCTTCA -0.0118
ACGACGAT 0.0412
CGAGCACC -0.16
CAGGATTA 0.0313
GTATCAAC 0.182
ATCAAGGG 0.0187
CTTGGGCC -0.297
AAATATGG 0.0773
AGGGAACA 0.162
AACTAAAG 0.173
ACTGAGAT 0.0602
CTTGTCGC 0.254
TATCGAAA 0.109
CCCACAGG -0.142
CCGCTTAG -0.153
AAACATTA 0.233
CCTACAGC -0.074
TCTAACCA 0.133
CGGCCGGA -0.243
GCTCGCAC -0.225
AAGTCAAA 0.0275
AAGCACGG -0.0259
TGAGGACA 0.194
AGACGACG 0.0389
ATCCAGTA 0.0685
GCATGCCC -0.0714
AAAAGGAG -0.148
GGGTTGAC -0.0775
CCCTCACG -0.194
AATCGTGG 0.0224
AATTTTTG 0.122
TCCGGGAA -0.045
CAGAGATC -0.0422
TAGGCACA -0.0197
GTGATTTA 0.129
CCTTTGTC 0.0525
ATCATCGC -0.0341
CTACAGAA 0.0955
ATGCCCTC -0.0602
GAGCTCGA -0.11
CTCCGAAG -0.206
AACGGCAC -0.0386
CAGAAATA 0.113
CACAGTCC -0.0682
AATTCAGC -0.0584
ATCCTGGC -0.137
AGCACGAC 0.00841
AATTTTGT 0.166
GAAAGGGA -0.224
GCACTAAC -0.0452
AGCGGCTG -0.181
GAACTCAA -0.027
CTGTGCTC -0.0136
ATGGTGCC -0.135
AGCAGGGG -0.213
CGGCAGAC -0.256
AGCGGTTG 0.0606
ACCAACGG 0.0018
GCACCCGA -0.242
AACGTGCT 0.0642
AAATAATA 0.171
AGACTTAT 0.033
CAGTTATG -0.0088
AGGCGTCG -0.157
CCCCGCCA -0.171
AGTATGCG -0.013
AACCTTAG -0.0445
GGACTTTA -0.0365
TGTGCTAA 0.0338
AACTCTCG -0.0385
TCGTGAAA 0.00205
TAAATACA 0.302
GTGACAAA 0.14
GGACCCGA -0.186
ATGGTGGG -0.195
CGCGCAGA -0.107
AGGACATC 0.233
CAGGCGAG -0.158
TACTTACA 0.296
TAATGAAA 0.0832
GCGGCATA -0.105
AACTCCTC -0.00975
GCCCTACC -0.141
CCGCCGTC -0.23
GCCTACCC -0.197
ATCGGAAA 0.0807
GTTCAAGA 0.0328
GGCTACAA 0.081
ACGAATGA 0.0985
CACACTAG -0.0517
ACGACGTG 0.198
TGACAGCA 0.185
CGACTTGA -0.0344
CTAGCCTC -0.119
GAATTGAA 0.062
ACCAGTGA 0.0897
CAGCGGCA -0.0898
AAGTCCAC -0.034

PBM E-score, ≥ 0.154:
TACGCATA
